Reference: PubChem BioAssay (NCI)
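How tested: cells in 96-well plates exposed to compound for 48 hours at five concentrations. GI50 marks 50% less growth.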 Certain results were filed several times, with different values. This is not the full list of results. An entry can have further records. For some of these results: The values listed for one entry are repeated measurements across runs, samples, wells, individuals or studies. Brackets tell where a record comes from. Letters count within one entry.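 TGI: total growth inhibition.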 For some of these results: A record mostly stands for its own series of concentrations, which the source does not state; some values may only mark the edge of a range.

Columns and labels:
Test in all cases: NCI tumour cell line growth inhibition, 48 h
RXF-631 renal = tested on: RXF-631 renal
A549 NSCLC = tested on: A549 NSCLC
M14 melanoma = tested on: M14 melanoma
RPMI-8226 leukemia = tested on: RPMI-8226 leukemia
SR leukemia = tested on: SR leukemia
NCI-H226 lung = tested on: NCI-H226 lung
K-562 leukemia = tested on: K-562 leukemia
MOLT-4 leukemia = tested on: MOLT-4 leukemia
HCT-116 colon = tested on: HCT-116 colon
CCRF-CEM leukemia = tested on: CCRF-CEM leukemia
CAKI-1 renal = tested on: CAKI-1 renal

C/C1=C\[C@H](C)C[C@H](C)OC(=O)C[C@H](c2ccc(O)cc2)NC(=O)[C@@H](Cc2c(Br)[nH]c3ccccc23)N(C)C(=O)[C@H](C)NC(=O)[C@@H](C)C1
TGI (RXF-631 renal): 646 nM and > 100 µM
TGI (A549 NSCLC): 657 nM and 31.5 µM
TGI (M14 melanoma): 624 nM and 8.63 µM

CN(C)c1ccc(/C=C2\C[C@H]3[C@@H]4CC=C5C[C@@H](N6CCCC6)CC[C@]5(C)[C@H]4CC[C@]3(C)[C@H]2O)cc1
TGI (RPMI-8226 leukemia): 2.34 µM and 25 µM
TGI (SR leukemia): 1.94 µM and > 100 µM
TGI (NCI-H226 lung): 1.49 µM and 36.1 µM
TGI (K-562 leukemia): 5.06 µM and > 100 µM
TGI (MOLT-4 leukemia): 9.59 µM and > 100 µM

C[C@]12O[C@H](C[C@]1(O)CO)n1c3ccccc3c3c4c(c5c6ccccc6n2c5c31)CNC4=O
TGI (HCT-116 colon): 2.73 µM [sample A, mean of 2 tests] and > 34.3 µM [sample B, mean of 2 tests]
TGI (CCRF-CEM leukemia): 566 nM [sample A, mean of 2 tests] and 6.68 µM [sample B, mean of 2 tests]
TGI (CAKI-1 renal): 337 nM [sample A, mean of 2 tests] and 4.2 µM [sample B, mean of 2 tests]
GI50 (K-562 leukemia): 42.7 nM [sample A, mean of 2 tests] and 572 nM [sample B, 1 test]

CN(C)C[C@H]1CC[C@@H](CN(C)C)C1=O
TGI (CAKI-1 renal): 954 nM and 16 µM
